{"source": "paper PMC7819943", "about": "“Rice protein-binding microarrays: a tool to detect cis-acting elements near promoter regions in rice”", "note": "Some of the results follow."}
{"molecular_target": "T1, OsWOX13 (Oryza sativa, UniProt Q5QMM3 1-267)", "T1 sequence": "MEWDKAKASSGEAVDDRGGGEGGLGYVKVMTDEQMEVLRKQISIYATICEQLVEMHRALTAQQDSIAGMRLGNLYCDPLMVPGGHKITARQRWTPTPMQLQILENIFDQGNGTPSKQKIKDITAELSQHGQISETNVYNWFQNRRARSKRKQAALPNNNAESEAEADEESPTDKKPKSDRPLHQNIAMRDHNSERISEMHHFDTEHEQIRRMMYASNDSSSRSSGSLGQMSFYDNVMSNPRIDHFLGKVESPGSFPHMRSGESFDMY", "assay": "protein-binding microarray (RPBM); PBS, 2% BSA, 51.3 ng/ul salmon testes DNA, 50 uM zinc acetate, 200 nM TF, 25 C, 1 h; high values mean tight binding", "settings": "protein: recombinant; tags: N-terminal polyhistidine and DsRed monomer fusion (pET32a); label: CyDye5-dUTP incorporated in the synthesized complementary strand; 3' TTTTT single-stranded linker to array surface; dsDNA, one strand shown", "outline": "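Ni–NTA purification followed expression in E. coli BL21-CodonPlus of transcription factors fused N-terminally to a polyhistidine tag and DsRed. At 200 nM in PBS with 2% BSA, salmon testes DNA and 50 µM zinc acetate, the protein was incubated for 1 h at 25 °C with a custom Agilent array that had been primer-extended with Cy5-dUTP and blocked with 2% BSA. After washing, the array was read on an Axon 4000B scanner. The binding signal is per-feature fluorescence intensity in arbitrary units.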"}
{"sequence": "ACTCTTAATTAATGAGTTGATGATGTTGACTAAATTAAGGCGGAGTCACCTAGTGCAG", "binding signal": "27700 fluorescence intensity (a.u.)"}
{"sequence": "AACCAATCAACCAACCAAAGCAGCAGCATTCGTGGTGGTGCGGAGTCACCTAGTGCAG", "binding signal": "11300 fluorescence intensity (a.u.)"}
{"sequence": "AGCGGTCTATTAGCGCGTGATTAATTAAGTATTAGCTTTTCGGAGTCACCTAGTGCAG", "binding signal": "5450 fluorescence intensity (a.u.)"}
{"sequence": "CTGGTATTGATTTCATATTCAAACCAACGTGCTTTCGACCCGGAGTCACCTAGTGCAG", "binding signal": "7640 fluorescence intensity (a.u.)"}
{"sequence": "GCCTAACATACATAACGGGTTAAACAGAAAGCCTCTTACACGGAGTCACCTAGTGCAG", "binding signal": "5430 fluorescence intensity (a.u.)"}
{"sequence": "AGATAGATAAATTGATGATAAAAGAACCGATCAGCCAATACGGAGTCACCTAGTGCAG", "binding signal": "27400 fluorescence intensity (a.u.)"}
{"sequence": "CTATCTTAATTAGCTTCTTTATCTCTGTCTCAGTAGTGCACGGAGTCACCTAGTGCAG", "binding signal": "20900 fluorescence intensity (a.u.)"}
{"sequence": "AAATAATTAGTATATATTCCCTCTATTCTTTTATATGTGACGGAGTCACCTAGTGCAG", "binding signal": "21900 fluorescence intensity (a.u.)"}
{"sequence": "CTGATGCATGATTGAAACAGCTAAGAACTTTATCAAATTCCGGAGTCACCTAGTGCAG", "binding signal": "18300 fluorescence intensity (a.u.)"}
{"sequence": "ACTTGAGGATGTGAAGATGATTGGTTAGGTACAGTGTTTGCGGAGTCACCTAGTGCAG", "binding signal": "13400 fluorescence intensity (a.u.)"}
{"sequence": "AGTTTTGGGTCATTGATTTATTTAGCATCGAAGCACATAACGGAGTCACCTAGTGCAG", "binding signal": "5820 fluorescence intensity (a.u.)"}
{"sequence": "GACTTGACTAATTGATTTGTGTAGATTTCTAAAAGCAAGGCGGAGTCACCTAGTGCAG", "binding signal": "58600 fluorescence intensity (a.u.)"}
{"sequence": "ATGATTTTCTTAAGTTTAATTTGACTCCAAATAATTGCATCGGAGTCACCTAGTGCAG", "binding signal": "16600 fluorescence intensity (a.u.)"}
{"sequence": "TTCCAGGTTAAATTGACATGTAAGTGCTACGTCAATGCCACGGAGTCACCTAGTGCAG", "binding signal": "23000 fluorescence intensity (a.u.)"}
{"sequence": "GTCACAAATCACAATAAAGTAACAGCAAATGAGGATCGGGCGGAGTCACCTAGTGCAG", "binding signal": "5220 fluorescence intensity (a.u.)"}
{"sequence": "GTTAATTAATTAGTTAGTACTAGCAAACATTGGCTAAAGTCGGAGTCACCTAGTGCAG", "binding signal": "55900 fluorescence intensity (a.u.)"}
{"sequence": "ATACTTAACCCACAGCTTATAGATTGAATGACTCTTCAATCGGAGTCACCTAGTGCAG", "binding signal": "24300 fluorescence intensity (a.u.)"}
{"sequence": "TTAATTTGTTTTCACGTATGGTTGTGTTGCCCGCTTGGAACGGAGTCACCTAGTGCAG", "binding signal": "4930 fluorescence intensity (a.u.)"}
{"sequence": "GCAGGTATTGACAGTCAAATATTATAATTTGGGTATGCCGCGGAGTCACCTAGTGCAG", "binding signal": "15800 fluorescence intensity (a.u.)"}
{"sequence": "GTCGATTATTAAACTCTCCCTAATTGACCTTAGTGTTGTCCGGAGTCACCTAGTGCAG", "binding signal": "16900 fluorescence intensity (a.u.)"}
{"sequence": "CCGTGATTGAGGCCCATCCAAATGTCTCTGGGCCATCCGCCGGAGTCACCTAGTGCAG", "binding signal": "28900 fluorescence intensity (a.u.)"}
{"sequence": "TCCAAATTATCTCGCAAAGGCTGCCTTCCCAGGATCATTTCGGAGTCACCTAGTGCAG", "binding signal": "8380 fluorescence intensity (a.u.)"}
{"sequence": "GTTAACTGTCTGGAAGTGCTAATTTTAGCTGATAATAAGACGGAGTCACCTAGTGCAG", "binding signal": "4320 fluorescence intensity (a.u.)"}
{"sequence": "ACTATTGACCACCATTAATTATACATAACCACTTTAGTATCGGAGTCACCTAGTGCAG", "binding signal": "8880 fluorescence intensity (a.u.)"}
{"sequence": "ACTAAATTTGATTCTTCGAAAGGCGGCATACTCTCTATTCCGGAGTCACCTAGTGCAG", "binding signal": "10100 fluorescence intensity (a.u.)"}
{"sequence": "TCCTTTAATTGTCACTTTTGGATATGGTAATTAACGAGTCCGGAGTCACCTAGTGCAG", "binding signal": "18000 fluorescence intensity (a.u.)"}
{"sequence": "CTGCCTGTAAATTTCTGTGATTTGATGTTTGCCTCTGTTGCGGAGTCACCTAGTGCAG", "binding signal": "11300 fluorescence intensity (a.u.)"}
{"sequence": "ATCATCAATCTCCCCATCCTCTCTCTACTCCCGATTTGTCCGGAGTCACCTAGTGCAG", "binding signal": "3570 fluorescence intensity (a.u.)"}
{"sequence": "ATAGAAGGTTACTAGAACTAAATTGAATTGTTCTATGACACGGAGTCACCTAGTGCAG", "binding signal": "4720 fluorescence intensity (a.u.)"}
{"sequence": "ACCCATCACTAATCAGTAATCACAGTATTACTATTAAATTCGGAGTCACCTAGTGCAG", "binding signal": "9220 fluorescence intensity (a.u.)"}
{"sequence": "TTAAATCAATAATTAAATATATTTTCATAATAAATTTGTGCGGAGTCACCTAGTGCAG", "binding signal": "27500 fluorescence intensity (a.u.)"}
{"sequence": "ATATGCTTGTTAATTAATGTTAATGTTTCAATCCAATATACGGAGTCACCTAGTGCAG", "binding signal": "8760 fluorescence intensity (a.u.)"}
{"sequence": "GGTTAAATTGATCACTTTGGCTACTCATCAATCGACAACCCGGAGTCACCTAGTGCAG", "binding signal": "38500 fluorescence intensity (a.u.)"}
{"sequence": "ATAAATTAAGTACCAGCCTAGCCATTTGTTTTGGTTGTTTCGGAGTCACCTAGTGCAG", "binding signal": "4590 fluorescence intensity (a.u.)"}
{"sequence": "TGCCTAACTGAGATTTGAATCATAGTTTTGAATATCTAAACGGAGTCACCTAGTGCAG", "binding signal": "5170 fluorescence intensity (a.u.)"}
{"sequence": "TACATTATATATTGATAGATAAAGATAGATCCAACCCGTTCGGAGTCACCTAGTGCAG", "binding signal": "13500 fluorescence intensity (a.u.)"}
{"sequence": "ATGATTGCTTAAGAATAATTGGTGACTTGCTACGAATGTGCGGAGTCACCTAGTGCAG", "binding signal": "51300 fluorescence intensity (a.u.)"}
{"sequence": "GTCACTATTAATTAATAATCATCGATTAATTAAGTCCTGTCGGAGTCACCTAGTGCAG", "binding signal": "41900 fluorescence intensity (a.u.)"}
{"sequence": "TTGAGCATTTTCAATCAATGATGGAAAATGACAACGATGACGGAGTCACCTAGTGCAG", "binding signal": "29800 fluorescence intensity (a.u.)"}
{"sequence": "TCTAAATTTCCGTTGAATGATATTTAGCAAATCTGTACTCCGGAGTCACCTAGTGCAG", "binding signal": "16100 fluorescence intensity (a.u.)"}
{"sequence": "GAACTACTAGATTGTTAATGGACATAGTAGTTGCATCATACGGAGTCACCTAGTGCAG", "binding signal": "3820 fluorescence intensity (a.u.)"}
{"sequence": "TTTAGAATTGTCATTATTTCAGTTATCTCTTAATTGTATTCGGAGTCACCTAGTGCAG", "binding signal": "4520 fluorescence intensity (a.u.)"}
